From the supplement of paper PMC10369915
The other results are listed elsewhere or left out. Rule as the data show it: active = 3.2 or more and inactive = the rest. The signal is at background level for most entries.

What was measured:
Assay in all cases: enrichment score (SH2-bound / input frequency) (ratio); bacterial display of known human phosphotyrosine sites (pTyr-Var adds point mutants) read by sequencing; higher = stronger binding; tyrosines were phosphorylated by kinases first
Conditions in all cases: peptide library: pTyr-Var
SHP2 C-SH2 domain E139D = molecular target: SHP2 C-SH2 domain E139D
[1] = molecular target: SHP2 C-SH2 domain wild-type
SHP2 N-SH2 domain L43F = molecular target: SHP2 N-SH2 domain L43F
SHP2 N-SH2 domain T42A = molecular target: SHP2 N-SH2 domain T42A
SHP2 N-SH2 domain T52S = molecular target: SHP2 N-SH2 domain T52S
[2] = molecular target: SHP2 N-SH2 domain wild-type
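Also: displayed peptides selected on beads carrying the immobilized SH2 domain, with library peptides lacking any tyrosine serving as negative controls.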

| Binder | enrichment score (SHP2 C-SH2 domain E139D) | enrichment score [1] | enrichment score (SHP2 N-SH2 domain L43F) | enrichment score (SHP2 N-SH2 domain T42A) | enrichment score (SHP2 N-SH2 domain T52S) | enrichment score [2] |
| --- | --- | --- | --- | --- | --- | --- |
| QADVIYVNTQL [MERTK_Y872] | inactive: 1.06 | inactive: 1.21 | inactive: 0.935 | inactive: 1.3 | inactive: 0.928 | inactive: 1.05 |
| QADVTYVNTQL [MERTK_Y872_I871T] | inactive: 1.63 | inactive: 1.97 | inactive: 1.89 | active: 7.17 | inactive: 1.76 | inactive: 1.57 |
| SELVCYDARVH [MET_Y971_R970C] | inactive: 0.557 | inactive: 0.85 | inactive: 0.682 | inactive: 0.676 | inactive: 0.675 | inactive: 0.758 |
| CLLHCYFSQIR [MCM3AP_Y873] | active: 3.2 | inactive: 3 | inactive: 3.11 | inactive: 2.45 | inactive: 2.81 | active: 3.37 |
| MDDKEYFSVHN [MET_Y1234_Y1230D_YF] | inactive: 0.678 | inactive: 0.751 | inactive: 0.669 | inactive: 0.537 | inactive: 0.688 | inactive: 0.607 |
| HFGCVYYGTLL [MET_Y1093_H1094Y] | inactive: 1.24 | inactive: 1.36 | inactive: 0.905 | inactive: 0.811 | inactive: 1.22 | inactive: 1.44 |
| MCDKEYYSVHN [MET_Y1234_Y1230C] | inactive: 0.775 | inactive: 0.828 | inactive: 0.741 | inactive: 0.728 | inactive: 0.615 | inactive: 1.02 |
| QSKGIYFVQLE [MGAT4B_Y262_YF] | inactive: 1.43 | inactive: 1.13 | inactive: 1.28 | inactive: 1.21 | inactive: 1.38 | inactive: 1.52 |
| NESVDYRATFP [MET_Y1003] | inactive: 0.791 | inactive: 0.693 | inactive: 0.841 | inactive: 0.614 | inactive: 0.733 | inactive: 0.823 |
| NESVDSRATFP [MET_Y1003_Y1003S] | inactive: 0.556 | inactive: 0.561 | inactive: 0.529 | inactive: 0.467 | inactive: 0.603 | inactive: 0.556 |
| SHNKFYMLVAR [MFSD8_Y134_YF] | inactive: 2.98 | inactive: 2.67 | inactive: 2.61 | inactive: 2.42 | inactive: 2.72 | inactive: 3.06 |
| LARDMDDKEFF [MET_Y1230_Y1230D_YF] | inactive: 0.781 | inactive: 0.757 | inactive: 0.527 | inactive: 0.854 | inactive: 0.734 | inactive: 0.572 |
| DGFIDYAEFAK [MCFD2_Y138_YF] | inactive: 0.927 | inactive: 0.674 | inactive: 0.734 | inactive: 0.723 | inactive: 0.716 | inactive: 0.793 |
| SSENPCATIKD [MEGF10_Y1030_Y1030C] | inactive: 0.571 | inactive: 0.591 | inactive: 0.604 | inactive: 0.572 | inactive: 0.597 | inactive: 0.616 |
| RSAGKDDVFLI [MECP2_Y120_Y120D_YF] | inactive: 0.908 | inactive: 0.609 | inactive: 0.464 | inactive: 1.33 | inactive: 0.62 | inactive: 0.821 |
| LARDMDDKEYY [MET_Y1230_Y1230D] | inactive: 0.623 | inactive: 0.623 | inactive: 0.889 | inactive: 0.97 | inactive: 0.544 | inactive: 0.734 |
| LARDMCDKEYY [MET_Y1230_Y1230C] | inactive: 1.05 | inactive: 0.999 | inactive: 1.16 | inactive: 0.982 | inactive: 1.04 | inactive: 1.12 |
| RKPDIYGRLAS [MCM4_Y459_E460G] | inactive: 1.35 | inactive: 1.3 | inactive: 1.15 | inactive: 0.847 | inactive: 1.14 | inactive: 1.16 |
| FDKEFYSVHNK [MET_Y1235_YF] | inactive: 0.805 | inactive: 0.628 | inactive: 0.594 | inactive: 0.709 | inactive: 0.953 | inactive: 0.948 |

| Binder | enrichment score (SHP2 C-SH2 domain E139D) | enrichment score [1] | enrichment score (SHP2 N-SH2 domain L43F) | enrichment score (SHP2 N-SH2 domain T42A) | enrichment score (SHP2 N-SH2 domain T52S) | enrichment score [2] |
| --- | --- | --- | --- | --- | --- | --- |
| QADIIYVNTQL [MERTK_Y872_V870I] | inactive: 1.21 | inactive: 1.44 | inactive: 1.12 | inactive: 1.42 | inactive: 1.07 | inactive: 1.23 |
| SSENPYATIKD [MEGF10_Y1030] | inactive: 0.871 | inactive: 2.49 | inactive: 0.548 | inactive: 0.734 | inactive: 0.624 | inactive: 0.589 |
| RAKLFYQEVPA [METTL11B_Y76] | inactive: 0.896 | inactive: 1.02 | inactive: 0.758 | inactive: 0.971 | inactive: 0.782 | inactive: 1.1 |
| YEEDPYLVVNP [MCM6_Y810] | inactive: 0.515 | inactive: 0.647 | inactive: 0.643 | inactive: 0.601 | inactive: 0.536 | inactive: 0.691 |
| HSKGIYYVQLE [MGAT4B_Y262_Q257H] | inactive: 1.26 | inactive: 2.04 | active: 3.35 | active: 9.58 | active: 4.2 | inactive: 1.98 |
| QELRRYLKSGI [MICA_Y194_V199I] | inactive: 0.62 | inactive: 0.645 | inactive: 0.724 | inactive: 0.562 | inactive: 0.442 | inactive: 0.389 |
| GAVGNYSRGLA [MGMT_Y158_G160R] | inactive: 0.553 | inactive: 0.548 | inactive: 0.523 | inactive: 0.555 | inactive: 0.46 | inactive: 0.59 |
| LARHMYDKEYY [MET_Y1230_D1228H] | inactive: 0.705 | inactive: 0.915 | inactive: 0.712 | inactive: 0.551 | inactive: 1.07 | inactive: 0.963 |
| MPAVTYTPAMR [MEGF10_Y895] | inactive: 0.674 | inactive: 0.478 | inactive: 0.663 | inactive: 0.47 | inactive: 0.491 | inactive: 0.589 |
| QSKGIYYVQLE [MGAT4B_Y262] | inactive: 1 | inactive: 1.28 | active: 4.18 | active: 10.1 | active: 3.81 | inactive: 1.29 |
| RSAGKYDVYLI [MECP2_Y120] | inactive: 0.924 | inactive: 1.07 | inactive: 1.05 | inactive: 0.714 | inactive: 0.915 | inactive: 1.28 |
| HDKEFYSVHNK [MET_Y1235_Y1230H_YF] | inactive: 0.526 | inactive: 0.557 | inactive: 0.695 | inactive: 0.723 | inactive: 0.251 | inactive: 0.624 |
| NLPGGYSGSVK [MCPH1_Y606] | inactive: 0.722 | inactive: 0.872 | inactive: 0.661 | inactive: 0.702 | inactive: 0.7 | inactive: 0.903 |
| SHNKYYMLVAH [MFSD8_Y134_R139H] | active: 5.69 | active: 7.44 | inactive: 3.16 | active: 3.31 | inactive: 3.01 | inactive: 2.58 |
| FKEDPYLVVNP [MCM6_Y810_E806K_YF] | inactive: 1.08 | inactive: 1.03 | inactive: 0.833 | inactive: 0.865 | inactive: 0.902 | inactive: 0.957 |
| GESSGYLRLAF [MEP1A_Y481_R476G] | inactive: 1.29 | inactive: 2.61 | active: 6.18 | active: 13.5 | active: 8.69 | inactive: 2.7 |
| NFPGGYSGSVK [MCPH1_Y606_L602F] | inactive: 0.9 | inactive: 0.647 | inactive: 0.763 | inactive: 0.668 | inactive: 0.861 | inactive: 0.664 |
| RSAGKYDVFLI [MECP2_Y120_YF] | inactive: 0.909 | inactive: 0.936 | inactive: 0.928 | inactive: 0.845 | inactive: 0.867 | inactive: 0.984 |
